Read counts are not given, so values of variants with three or more changes are uncertain.
B1: OR4K15 (parent)
chain: GUUAACGGUCAUAGGCCAUGGAAACUAGGAGCACCAUUUCGCUGCCAGUGAAGAAAUGAACAAAGAAAAUCUGGGCCAGGCAGGCAUCAAAAGAAAUAGUCUUGCGCUCAACCAGAAAGUCUGUAAUCAUUUUAAGGGUA

Variants of: B1
Experiment: self-cleavage, relative activity (ratio to wild type); higher = more cleavage; in vitro, sequencing; the parent is a self-cleaving ribozyme
Work on A23G U38A A47G A56G A91U yielded a self-cleavage of 0.52. With A23G A33G U103A the self-cleavage was 0.31. Work on A23G A59G A86U yielded a self-cleavage of 1.61. A23U A64U U103C gave a self-cleavage of 0.71. In the case of A23G A24G U131C A135G U139C, the self-cleavage is reported as 0.57. Work on A23G A89G U97C U120G yielded a self-cleavage of 0.44. In the case of A24C A30G U122C, the self-cleavage is reported as 1.18. For A23G U108C A118U, the self-cleavage was 0.01. A23G U26C A59G gave a self-cleavage of 1.23. In the case of A22U A69G C85G A89C A95U A114C, the self-cleavage is reported as 0.01. In the case of A23G U102C A140G, the self-cleavage is reported as 0.88. In the case of A23U A60G A67G A86G A110G, the self-cleavage is reported as 0.12. Work on A22U A66G C77U A92G yielded a self-cleavage of 1.07. For A23G A111G U122G, the self-cleavage was 0.04. A23G A56G A116U showed a self-cleavage of 0.34. Work on A24C U39A A118G yielded a self-cleavage of 1.75. Work on A23G A47G A59G G99A yielded a self-cleavage of 0.44. A23G G58U A140G gave a self-cleavage of 1.38. Work on A22U G28A U57C C101U A134G yielded a self-cleavage of 0.2. Work on A23U U49C U130A yielded a self-cleavage of 1.06. In the case of A23U A69G U122C, the self-cleavage is reported as 0.57. Variant A23G U43C A92G has a self-cleavage of 0.71. A23G A59U A69G C105G gave a self-cleavage of 0.01. In the case of A23G A56G A62G A67G U70A U87C, the self-cleavage is reported as 0.84. With A23G A60G A67G C105U A111C the self-cleavage was 0.02. For A23U U122C U131C, the self-cleavage was 0.5. Variant A23U A30G A86G has a self-cleavage of 0.21. For A23G U43C C112A A117G, the self-cleavage was 0.03. Work on A23U G104A A111U yielded a self-cleavage of 0.04. For A23G U43C A54U, the self-cleavage was 0.62. A23G A92G A110G A117G U132C showed a self-cleavage of 0.13. Variant A23G A30G C32U has a self-cleavage of 1.15. Variant A23G A54G A59G A69U A111G U122C has a self-cleavage of 0.05. For A23G U39C C45U, the self-cleavage was 1.22. A24C A47G A94G A118G U120C G137U showed a self-cleavage of 0.14. In the case of A23G U72G G106A, the self-cleavage is reported as 0. With A23U A64G A86U A117U the self-cleavage was 1.02. Variant A23G A27G U139C has a self-cleavage of 0.46. A23G A27G A36U A66G A98U U131C showed a self-cleavage of 2.37. A23G A68G A90G gave a self-cleavage of 0.94. In the case of A23G A91G U130C, the self-cleavage is reported as 0.63. For A23G A98G A118C U122A, the self-cleavage was 0.06. With A23G A55G A111G A135U the self-cleavage was 0.03. A22U G80A A118G gave a self-cleavage of 0.11. For A24C G79A G83U, the self-cleavage was 0.24. For A23G C32U U70A, the self-cleavage was 1.24. Work on A23G U72C A118G U120C yielded a self-cleavage of 0.02. Variant A23G A47G C112U has a self-cleavage of 0.04. A23C A62G A94G showed a self-cleavage of 2.22. A23G A55U A111G showed a self-cleavage of 0.08. A24C A60U A69G A140G gave a self-cleavage of 1.92. Variant A24C U43C A52G has a self-cleavage of 0.88. Work on A23G C35U A54G yielded a self-cleavage of 0.78. A22U C128A U131C gave a self-cleavage of 0.71. Variant A23G G106A U120C has a self-cleavage of 0. Work on A23G U100C A111G yielded a self-cleavage of 0.04. With A23G A59U A60G the self-cleavage was 1.26. For A24C A67U A91G A94G, the self-cleavage was 1.33. In the case of A23G A95G A96G, the self-cleavage is reported as 0.98. In the case of A23G U39C U43C A52G A114U, the self-cleavage is reported as 0.02. For A23G A47U A126G G136A, the self-cleavage was 0.94. In the case of A23G G74C A129G, the self-cleavage is reported as 0.13. With A23U U57A A90G the self-cleavage was 1.3. With A23G U43C U70C the self-cleavage was 0.73. A23G U37C A78U U131C showed a self-cleavage of 0.37. A23G U72C U87C U133C showed a self-cleavage of 0.64. For A23G A36G U132C, the self-cleavage was 1.02. In the case of A22U A114U U131C, the self-cleavage is reported as 0.05. A23G G99A U102C gave a self-cleavage of 0.79. A23U A47U A91G showed a self-cleavage of 0.67. In the case of A23G G31A A51G A82G U130C, the self-cleavage is reported as 0.57. A24C A55G A62U A96U U122C U130C gave a self-cleavage of 0.06. With A23G A47U A55C A96G A110G U122C the self-cleavage was 0.03. Work on A22U C46G A69U A126G A134U yielded a self-cleavage of 0. With A23U A51C U87A U97A the self-cleavage was 1.58. With A23C A116G A118G the self-cleavage was 0.93. For A22U G93A A118G, the self-cleavage was 1.23. A23U U100A U131C showed a self-cleavage of 0.3. With A22U A90G U103C U108A A114G the self-cleavage was 0.01. Work on A23G U49G A54G A82U U108C U122C U127A yielded a self-cleavage of 0.03. In the case of A22U C32A U87A, the self-cleavage is reported as 1.86. A23G A30C U49C showed a self-cleavage of 0.3. A24C A68G A89G A95G A129G showed a self-cleavage of 1.64. A23G U70C A125G showed a self-cleavage of 0.1. For A23G A69U G93U U131C, the self-cleavage was 0.76. Work on A23U A60G A118G yielded a self-cleavage of 0.79. Work on A23G A89G U108A yielded a self-cleavage of 0.01. Variant A23U A66G A111G has a self-cleavage of 0.04. A23U C46U A62G U70C showed a self-cleavage of 0.76. Work on A22U U57C U108C yielded a self-cleavage of 0.02. A23G A78U U97C A117G gave a self-cleavage of 0.27. With A23U U49C A59U C105U the self-cleavage was 0.08. A23C U26A A68G U72G A92G gave a self-cleavage of 0.27. In the case of A23U A24G A51G A92G A114G, the self-cleavage is reported as 0.24. Variant A23G A95G U97A has a self-cleavage of 1.42. Work on A23G A36G G44A U130C yielded a self-cleavage of 0.44. Variant A23G A63G G80A A90G has a self-cleavage of 0.19. A23U A55G A89G A91G showed a self-cleavage of 1.06. Work on A22U U49C G104A yielded a self-cleavage of 0.04. In the case of A22U A63G U120A, the self-cleavage is reported as 1.2. A23G A33U U38C A51U showed a self-cleavage of 1.35. A23G A68C U72A U100C showed a self-cleavage of 0.51. Variant A23G A55U A63G C113U has a self-cleavage of 0.11. For A23G A55U A60U, the self-cleavage was 0.87. A23C A82U A91G A92G C109U A134G gave a self-cleavage of 0.04. A23G A62G A96G G106A showed a self-cleavage of 0.03. For A22U U49C A98G, the self-cleavage was 0.54. In the case of A23G G83A A91G A140G, the self-cleavage is reported as 1.57. Variant A23G A67G G74A has a self-cleavage of 0.37. With A23G A24G A54G the self-cleavage was 1.15. Work on A22U A92G U120A yielded a self-cleavage of 2.03. Variant A23G U70C U108C U120A has a self-cleavage of 0.05. Variant A23G A66G A140G has a self-cleavage of 1.21. In the case of A23G U43C A62U A64G, the self-cleavage is reported as 1.72. Work on A23G A33U G83U A95G yielded a self-cleavage of 0.67. A23G A62G A94U A111G A116G gave a self-cleavage of 0.15. A22U U39G U49A showed a self-cleavage of 0.87. Work on A24C U38C U97A yielded a self-cleavage of 1.72. Variant A23G A30G C45U A64U U72C A86U has a self-cleavage of 0.07. Work on A23G U38C A47U yielded a self-cleavage of 0.67. In the case of A23U U70C G79A A94G, the self-cleavage is reported as 0.13. A23G A96G G136A showed a self-cleavage of 1.42. Variant A23G A68G U87C A117G A118G has a self-cleavage of 0.33. Work on A23G U102C G106A U122C yielded a self-cleavage of 0. In the case of A24C A60U U120C A126G, the self-cleavage is reported as 1.12. A23G A90G A126G showed a self-cleavage of 0.85. With A23G A47G A86G U102C G123U the self-cleavage was 1.9. Variant A23G U38C U43A A89G U127C has a self-cleavage of 0.93. With A23G A96G A126G the self-cleavage was 0.79. With A23U U103C U133C the self-cleavage was 1.36. A23G U38A A118C gave a self-cleavage of 0.84. A23G G41A A69G A98G U120A gave a self-cleavage of 0.57. For A23G U97C U103C, the self-cleavage was 0.09. Work on A23G U87C U122C yielded a self-cleavage of 0.59. A24C A33G A78G A98G showed a self-cleavage of 0.08. A23G U43G U108C U120C showed a self-cleavage of 0.02. With A23U U38C A111G the self-cleavage was 0.05. With A24C A63G U130C the self-cleavage was 1.92. With A23G A52G A68G U108C the self-cleavage was 0.07. A23G C34A A56G U102G gave a self-cleavage of 0.8. In the case of A22U A69G U87C U132G, the self-cleavage is reported as 0.94. Variant A23G A33G A60U U132A has a self-cleavage of 1.12. Work on A23G A54G A78G U130C yielded a self-cleavage of 0.12. Work on A22U U26A U37C A56G A95G yielded a self-cleavage of 1.52. With A23G A54U A55G U120C U139C the self-cleavage was 0.4. With A24C A64G A78U A86U A110G the self-cleavage was 0.09. In the case of A23G U38C A69U A140G, the self-cleavage is reported as 1.02. For A23C A54G A55G, the self-cleavage was 1. With A23G U87C A117G U132C the self-cleavage was 0.72. Variant A23G A64G A90G has a self-cleavage of 0.31. For A23G A52G U127C, the self-cleavage was 1.26. For A23G A52G A117U, the self-cleavage was 0.53. A23G A62G A91G showed a self-cleavage of 0.62. With A23G A129G U131C the self-cleavage was 0.87. Variant A22U U37C U102C A135U has a self-cleavage of 1.54. With A23G G28A A68G A96G the self-cleavage was 1.33. With A23U A51C A117G the self-cleavage was 1.19. Work on A23U G28A A78U A117G A126G yielded a self-cleavage of 0.55. Variant A23U U43A U72C has a self-cleavage of 0.2. For A24C A68G A118G, the self-cleavage was 0.98. Work on A23G A68G A86G U87C A95G yielded a self-cleavage of 1.05. In the case of A22U A78U A118G, the self-cleavage is reported as 0.05. For A23G A60U U100C, the self-cleavage was 1.92. A23G C85U A117G showed a self-cleavage of 1.02. With A23G A27G A98U U132C the self-cleavage was 1.57. A23G U43A U108A gave a self-cleavage of 0.02. With A23G C42U A47G A59G C76U the self-cleavage was 0.2.

Source: the RNAGym collection of RNA variant scans (doi:10.7554/elife.90254)
